According to the supplement of paper PMC12217912:
Some of the results follow. Sequences were assembled here from the parent chain. Inactive controls read about 0.05.

B1: TEV protease; numbered along this chain (parent)
chain: MGESLFKGPRDYNPISSSICHLTNESDGHTTSLYGIGFGPFIITNKHLFRRNNGTLVVQSLHGVFKVKDTTTLQQHLVDGRDMIIIRMPKDFPPFPQKLKFREPQREERICLVTTNFQTKSMSSMVSDTSCTFPSGDGIFWKHWIQTKDGQCGSPLVSTRDGFIVGIHSASNFTNTNNYFTSVPKNFMELLTNQEAQQWVSGWRLNADSVLWGGHKVFMVKPEEPFQPVKEATQL

Variants of: B1
Assay: raw area under fraction-flipped curve 0-4 h after induction (AUC4h, not background-subtracted), DNA-recorder readout of cleavage of the substrate (dimensionless); higher = more cleavage of the substrate by the protease variant
Details: temperature: 34 °C; time window: 0-4 h after rhamnose induction
Protocol: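 In vivo DNA recorder in E. coli TOP10(DE3) ΔrhaA at 34 °C. Each TEVp single-site mutant (parent TEVp 0) is paired with a single-site variant of the 7-mer TEVs (canonical ENLYFQ|S). The substrate sits between flexible linkers in a Bxb1-sfGFP-TEVs-SsrA fusion, so cleavage stabilises Bxb1 and speeds flipping of a recombination array, read by NGS. The value is the raw area under the fraction-flipped curve over 0-4 h after rhamnose induction (AUC4h), with ≥20 reads per time point. It is not background-subtracted; inactive controls average about 0.047.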
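Also: Bxb1 expression induced with 0.2% (w/v) L-rhamnose at OD600 near 0.5, cultures sampled hourly, flipped fraction per protease–substrate barcode pair counted by paired-end Illumina sequencing.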

| Variant | area with substrate ENLYCQS | area with substrate ENLYDQS | area with substrate ENLYEQS | area with substrate ENLYGQS | area with substrate ENLYIQS | area with substrate ENLYKQS | area with substrate ENLYLQS | area with substrate ENLYMQS | area with substrate ENLYPQS | area with substrate ENLYQQS | area with substrate ENLYRQS | area with substrate ENLYSQS | area with substrate ENLYTQS | area with substrate ENLYWQS | area with substrate ENLYHQS | area with substrate ENLYNQS | area with substrate ENLYVQS | area with substrate ENLYYQS |
| --- | --- | --- | --- | --- | --- | --- | --- | --- | --- | --- | --- | --- | --- | --- | --- | --- | --- | --- |
| N13M | 0.0892 | 0.0567 | 0.0634 | 0.0668 | 0.132 | 0.0499 | 0.0726 | 0.115 | 0.065 | 0.0483 | 0.0588 | 0.0697 | 0.0915 | 0.0895 | – | – | – | – |
| P14E | 0.082 | 0.0673 | 0.0551 | 0.0671 | – | 0.0331 | 0.0792 | 0.0855 | 0.0552 | 0.0463 | 0.0587 | – | 0.0785 | 0.0772 | 0.0809 | 0.0466 | 0.121 | – |
| H21V | 0.0801 | 0.0608 | 0.0578 | – | 0.127 | 0.0441 | 0.0891 | 0.0742 | 0.0544 | 0.0613 | 0.0656 | 0.0749 | 0.0877 | 0.0797 | 0.0732 | 0.0648 | – | 0.0671 |
| L22C | 0.0919 | 0.07 | 0.0655 | 0.0531 | 0.0855 | 0.0609 | – | 0.0881 | 0.0785 | 0.0646 | 0.0623 | 0.0724 | 0.0744 | 0.0619 | 0.0693 | – | – | 0.0652 |
| S26E | 0.0724 | 0.0619 | 0.0773 | 0.0907 | 0.121 | 0.0683 | – | 0.0647 | 0.0368 | 0.0695 | 0.0569 | 0.074 | 0.0598 | 0.0655 | 0.0567 | 0.0494 | – | – |
| D27S | 0.0852 | 0.0725 | 0.046 | 0.0703 | – | 0.0672 | – | 0.0874 | 0.061 | 0.0705 | 0.0552 | – | – | 0.082 | 0.0584 | 0.0927 | 0.104 | 0.0572 |
| T30R | 0.0694 | 0.0416 | 0.0743 | 0.0605 | 0.122 | 0.0749 | 0.0857 | 0.0919 | 0.0822 | 0.0561 | 0.0727 | 0.0769 | – | 0.0736 | 0.0714 | 0.0838 | 0.124 | – |
| L33H | 0.0292 | 0.0599 | 0.072 | 0.0648 | 0.0649 | 0.0552 | – | 0.0577 | 0.0584 | 0.0341 | 0.0644 | 0.0645 | 0.0352 | 0.0722 | 0.066 | 0.0554 | 0.0647 | 0.0691 |
| F38K | 0.0513 | 0.0489 | 0.0452 | 0.0553 | 0.0627 | – | – | 0.0659 | 0.0512 | 0.0551 | – | 0.0549 | – | – | 0.0466 | 0.0528 | 0.0633 | – |
| R50C | 0.088 | 0.0621 | – | 0.0662 | 0.138 | 0.0672 | – | – | 0.0771 | 0.0687 | 0.057 | 0.0741 | – | 0.0617 | 0.0891 | – | 0.13 | – |
| T55C | 0.0864 | 0.0654 | 0.0603 | 0.0706 | 0.119 | 0.0619 | – | 0.0871 | 0.0811 | – | – | 0.118 | 0.0673 | – | 0.0789 | 0.0718 | 0.108 | 0.0583 |
| V57N | 0.0736 | 0.0684 | 0.0636 | – | – | 0.052 | – | 0.107 | 0.0906 | – | 0.0654 | 0.0777 | – | – | 0.0673 | 0.0742 | – | – |
| V57S | 0.0963 | 0.068 | 0.0646 | 0.0673 | 0.13 | – | – | – | 0.0789 | 0.059 | 0.0667 | 0.098 | – | 0.128 | 0.0704 | 0.101 | 0.178 | 0.0709 |
| H62Y | 0.0729 | – | – | 0.0645 | – | 0.0545 | 0.0892 | 0.0833 | – | 0.0454 | 0.0543 | – | 0.113 | 0.0928 | 0.0665 | 0.0547 | 0.108 | 0.0718 |
| G63L | 0.0752 | 0.0885 | 0.0633 | 0.059 | 0.102 | 0.0469 | 0.0711 | – | 0.055 | 0.0599 | 0.0577 | 0.0809 | – | 0.077 | 0.0557 | – | 0.104 | 0.0565 |
| G63R | 0.0901 | – | 0.0672 | – | 0.106 | 0.0723 | – | 0.0589 | 0.0571 | 0.0696 | – | – | 0.053 | 0.0793 | – | 0.0705 | 0.0985 | – |
| T70L | 0.0927 | 0.0645 | 0.0683 | 0.059 | 0.107 | 0.0638 | – | 0.0717 | 0.0552 | 0.0256 | 0.0735 | – | 0.0566 | 0.0626 | – | 0.0836 | 0.079 | 0.0457 |
| H76L | 0.0705 | 0.0681 | – | 0.0556 | – | 0.0623 | 0.103 | 0.0932 | – | 0.0676 | – | – | 0.0844 | 0.0823 | 0.041 | 0.0706 | 0.138 | 0.077 |
| D79K | 0.0779 | – | 0.0683 | – | 0.105 | – | – | 0.0663 | 0.0746 | – | 0.0534 | 0.0675 | 0.0699 | 0.0673 | 0.0627 | 0.0597 | 0.0971 | – |
| D82L | 0.0547 | 0.0551 | 0.0539 | 0.0357 | 0.0543 | – | – | – | – | 0.0516 | – | 0.0622 | 0.0517 | 0.0508 | 0.0391 | 0.059 | – | – |
| I85Y | 0.0225 | – | 0.0496 | 0.0475 | 0.0628 | 0.0572 | 0.0936 | 0.0674 | – | 0.059 | 0.0648 | – | – | 0.0585 | 0.0543 | – | 0.0709 | – |
| P89L | 0.0626 | 0.0653 | 0.0412 | – | 0.0884 | 0.056 | – | 0.0808 | 0.0332 | 0.0589 | – | – | – | – | 0.0381 | 0.0468 | – | – |
| F95A | 0.0875 | 0.0551 | 0.0602 | – | 0.0994 | 0.0641 | 0.0626 | 0.0573 | 0.0647 | – | 0.0492 | 0.0701 | 0.0604 | – | 0.0695 | – | – | 0.0743 |
| F95H | 0.0735 | 0.0603 | 0.0448 | 0.0694 | 0.0983 | 0.0686 | – | 0.0991 | 0.0575 | – | 0.0742 | – | – | – | 0.0589 | 0.0577 | 0.0836 | – |
| K98N | 0.0982 | 0.0754 | 0.0627 | 0.0843 | 0.142 | 0.0816 | 0.086 | 0.0849 | 0.072 | 0.0656 | 0.0746 | – | 0.0895 | 0.0543 | 0.063 | 0.0761 | 0.0999 | 0.0653 |
| K98S | 0.0862 | 0.054 | 0.0692 | 0.0716 | 0.122 | 0.0343 | – | 0.099 | 0.0758 | 0.0603 | 0.0706 | – | 0.0774 | 0.0682 | 0.0732 | 0.0846 | 0.118 | 0.0589 |
